Test results from the supplement of paper PMC3334620.
Over roughly 33,000 sequences, “E-score (-0.5 to 0.5)” has its median near -0.054; the highest 2% begin near 0.35. Some of the results follow.

Target: T1, Stb5 (UniProt P38699)
T1 sequence: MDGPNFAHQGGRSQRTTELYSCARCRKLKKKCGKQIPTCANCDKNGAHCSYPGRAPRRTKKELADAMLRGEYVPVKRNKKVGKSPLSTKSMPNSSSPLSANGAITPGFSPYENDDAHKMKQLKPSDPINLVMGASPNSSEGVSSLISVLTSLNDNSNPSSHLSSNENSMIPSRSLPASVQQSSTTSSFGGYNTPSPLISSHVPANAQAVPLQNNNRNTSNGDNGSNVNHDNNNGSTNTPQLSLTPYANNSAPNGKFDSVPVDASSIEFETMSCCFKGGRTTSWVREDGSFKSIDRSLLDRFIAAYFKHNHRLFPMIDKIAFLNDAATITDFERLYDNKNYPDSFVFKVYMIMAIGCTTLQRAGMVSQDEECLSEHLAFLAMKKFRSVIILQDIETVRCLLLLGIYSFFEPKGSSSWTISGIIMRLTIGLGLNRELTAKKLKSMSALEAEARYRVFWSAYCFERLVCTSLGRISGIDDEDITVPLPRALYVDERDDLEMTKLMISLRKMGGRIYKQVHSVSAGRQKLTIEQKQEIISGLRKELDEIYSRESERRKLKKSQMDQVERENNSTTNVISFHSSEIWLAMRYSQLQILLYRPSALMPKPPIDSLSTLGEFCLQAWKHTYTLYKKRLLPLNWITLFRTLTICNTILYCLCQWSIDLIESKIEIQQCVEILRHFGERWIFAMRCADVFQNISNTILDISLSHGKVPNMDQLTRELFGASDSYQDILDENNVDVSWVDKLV
Assay: PBM E-score (8-mer binding enrichment) (E-score (-0.5 to 0.5)); higher = stronger / more preferred TF binding; most listed sequences are background and not binding sites
Conditions: protein concentration: 200 nM; construct: GST-full length
In short: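 Universal all-10-mer Agilent arrays, fresh or stripped once, were converted to double-stranded form by primer extension. GST-tagged yeast transcription factors from PURExpress in vitro transcription/translation, full-length or DNA-binding domain only, were applied at about 100-200 nM and detected with fluorescent anti-GST. After masliner normalisation, the Universal PBM Analysis Suite scored each ungapped eight-base word together with its reverse complement by E-score.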

Row | Sequence | PBM E-score
1 | GACACGAA | 0.0734
2 | GGGTCGTA | 0.00669
3 | CATGGGTC | -0.19
4 | GAATCAAC | -0.0937
5 | AGCTCTAG | -0.152
6 | TACGTGCA | -0.21
7 | CACATCAA | -0.259
8 | AGAAGGAT | -0.253
9 | CCTTGAAG | -0.133
10 | ACCCCATA | 0.0013
11 | TAGGGGAA | -0.275
12 | ACAGTCCC | 0.11
13 | CCGAATCA | 0.172
14 | GCATGCAC | -0.0844
15 | GCCATTAA | -0.0877
16 | AAGTGAAG | -0.22
17 | AAACGGCT | -0.0754
18 | ATGGAGTG | -0.143
19 | ACTATCAT | -0.0614
20 | AGGTTAGA | -0.0614
21 | AGTTCACA | -0.06
22 | TCAATCAA | -0.224

Row | Sequence | PBM E-score
23 | ATCCCCCC | -0.0842
24 | CGTATATC | 0.107
25 | ACCGCAAC | 0.225
26 | CGTGCCTA | -0.109
27 | CTCAGGCC | -0.175
28 | CTTTTCCA | 0.0112
29 | ACTCCGCT | 0.392
30 | AGTACTCG | -0.186
31 | CGCCAGGC | 0.168
32 | ATCGTAGA | -0.214
33 | TTATCGAA | 0.104
34 | CTAACTCC | 0.288
35 | CTTACGTA | -0.101
36 | AACGAAAA | -0.0575
37 | AACGAGAA | 0.0265
38 | TAGTCGGA | 0.355
39 | ACCCGAGT | 0.136
40 | ATAAGAAA | -0.00881
41 | ACTAACCG | 0.128
42 | AACTTTCC | 0.0165
43 | TACCTACA | -0.284
44 | ACTCGGGC | 0.0283

Row | Sequence | PBM E-score
45 | GTTGTCGA | -0.192
46 | GATGCACA | -0.223
47 | ATTTCCCC | 0.234
48 | AGCACATA | -0.00917
49 | ATGATGTA | -0.119
50 | ATGCTTTC | -0.185
51 | ACGGACCG | 0.297
52 | GAACTTGA | -0.0184
53 | AAAAGAAG | -0.0941
54 | GGTATTTA | 0.302
55 | GATGATCC | 0.0218
56 | CTATAGAA | -0.136
57 | AGGTGGTG | -0.185
58 | CTAACCGC | 0.0995
59 | CCGGAGAG | 0.13
60 | ACAGCCGT | 0.0168
61 | CGTAGGAA | -0.112
62 | AGTTTCGA | -0.17
63 | CCATTGGC | -0.178
64 | ATTAGCAG | 0.0454
65 | TCGCGCCA | -0.0166
66 | ATTACTAC | -0.152

Row | Sequence | PBM E-score
67 | AGACCTGG | -0.234
68 | TCATTAGA | 0.0392
69 | CGGCTCGA | 0.113
70 | ATGGATGG | -0.171
71 | ATTACCGG | 0.371
72 | CATCCTGG | -0.214
73 | TCTAGTAA | -0.0555
74 | ACGGAGAC | 0.272
75 | GCTAGCGA | -0.256
76 | ACAAAGCG | -0.0231
77 | GATTAACA | -0.0292
78 | ACCGAACC | 0.194
79 | ATGCTAGA | -0.263
80 | GGCGTATA | 0.271
81 | AAGTTATA | 0.0559
82 | CTAGTTCA | -0.21
83 | AGGGATAG | -0.0908
84 | AGATCGGC | 0.337
85 | AGATGTAG | -0.0297
86 | CTTTTTGC | -0.0672
87 | AGTCACAC | -0.207
88 | TACTGATA | -0.13

Row | Sequence | PBM E-score
89 | GCGCGTAA | -0.034
90 | ATTTAGAC | 0.0407
91 | AAAGAACC | 0.112
92 | AAAGGCCT | -0.115
93 | GCAGCGTA | -0.126
94 | AACTTTCA | -0.0896
95 | CTGACCGA | -0.0342
96 | GCTCTCCA | -0.21
97 | GCTGCTGA | -0.114
98 | AGGTGCGA | 0.0754
99 | AGAAAGAA | -0.0975
100 | CTGGAAGA | -0.142
101 | ATTTTTCC | -0.0446
102 | AACTGCGA | 0.219
103 | AACCCCAG | -0.154
104 | AACCCCCG | 0.401
105 | TCATTCGA | -0.111
106 | TAGATAGA | -0.0546
107 | AAACCGGG | 0.0888
108 | CCAACGCC | 0.0804
109 | ATTGCAAC | 0.00777
